Measured values as given in the supplement of paper PMC4967469.

What was measured:
Test in all cases: Viability of human cancer cell lines after 72 h of drug (GDSC screen)
Methotrexate = compound: CN(Cc1cnc2nc(N)nc(N)c2n1)c1ccc(C(=O)N[C@@H](CCC(=O)O)C(=O)O)cc1 [Methotrexate]; conditions: top dose 0.2 µM
Description: (§1)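 Human cancer cell lines in 384-well plates, medium with 10% serum, drug for 72 h over a 256-fold dose range (nine 2-fold or five 4-fold steps up to the top dose). Adherent lines were fixed and stained with the nucleic acid dye Syto60, suspension lines read with resazurin; signal relative to control wells, capped at 0 and 100%. One two-parameter sigmoid per drug and line, fitted in a mixed model over all curves with the slope shared within a line.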

Dabrafenib = compound: CC(C)(C)c1nc(-c2cccc(NS(=O)(=O)c3c(F)cccc3F)c2F)c(-c2ccnc(N)n2)s1 [Dabrafenib]; conditions: top dose 10 µM
Description: as §1

Axitinib = compound: CNC(=O)c1ccccc1Sc1ccc2c(/C=C/c3ccccn3)n[nH]c2c1 [Axitinib]; conditions: top dose 2 µM
Description: as §1

SN-38 = compound: CCc1c2c(nc3ccc(O)cc13)-c1cc3c(c(=O)n1C2)COC(=O)[C@]3(O)CC [SN-38]; conditions: top dose 0.05 µM; top dose inferred
Description: as §1

Cell Line | AUC (Methotrexate) | IC50 (Methotrexate) | AUC (Dabrafenib) | IC50 (Dabrafenib) | AUC (Axitinib) | IC50 (Axitinib) | AUC (SN-38) | IC50 (SN-38)
MEL-HO (melanoma, adherent) | 0.958 | > 200 nM | 0.068 | < 0.0391 µM | 0.986 | > 2000 nM | 0.686 | 10.4 nM
JM1 (B-cell lymphoma, suspension) | 0.826 | 98.5 nM | 0.884 | 8.17 µM | 0.946 | > 2000 nM | 0.226 | 0.579 nM
RT4 (bladder, adherent) | 0.904 | > 200 nM | 0.916 | > 10 µM | 0.858 | 1780 nM | 0.666 | 9.31 nM
DOHH-2 (B-cell lymphoma, suspension) | 0.622 | 26.9 nM | – | – | 0.955 | > 2000 nM | – | –
Farage (B-cell lymphoma, suspension) | 0.901 | 177 nM | 0.983 | > 10 µM | 0.993 | > 2000 nM | 0.992 | > 50 nM
SW948 (large intestine, adherent) | 0.982 | > 200 nM | 0.98 | > 10 µM | 0.959 | > 2000 nM | 0.579 | 5.7 nM
22RV1 (prostate, adherent) | 0.915 | > 200 nM | 0.93 | > 10 µM | 0.915 | > 2000 nM | 0.644 | 8.66 nM
SU-DHL-6 (B-cell lymphoma, suspension) | 0.632 | 26.2 nM | 0.944 | > 10 µM | 0.953 | > 2000 nM | 0.767 | 14.2 nM
MOLP-8 (myeloma, suspension) | 0.953 | > 200 nM | 0.832 | 6.03 µM | 0.953 | > 2000 nM | 0.572 | 4.86 nM
NB1 (neuroblastoma, semi-adherent) | 0.889 | > 200 nM | 0.982 | > 10 µM | 0.951 | > 2000 nM | 0.733 | 15.7 nM
NCI-H929 (myeloma, suspension) | 0.743 | 54.5 nM | 0.853 | 6.1 µM | 0.959 | > 2000 nM | 0.699 | 10.3 nM
CL-11 (large intestine, adherent) | 0.919 | > 200 nM | 0.914 | > 10 µM | 0.958 | > 2000 nM | 0.847 | 44.1 nM
SUP-M2 (anaplastic large cell lymphoma, suspension) | 0.306 | 4.15 nM | 0.987 | > 10 µM | 0.834 | 896 nM | 0.294 | 0.967 nM
KNS-62 (lung squamous cell carcinoma, adherent) | 0.962 | > 200 nM | 0.923 | > 10 µM | 0.972 | > 2000 nM | 0.608 | 7.05 nM
Hep 3B2_1-7 (liver, adherent) | 0.985 | > 200 nM | 0.925 | > 10 µM | 0.808 | 1030 nM | 0.897 | > 50 nM
U-266 (myeloma, semi-adherent) | 0.959 | > 200 nM | 0.865 | > 10 µM | 0.983 | > 2000 nM | 0.921 | > 50 nM
T98G (glioma, adherent) | 0.988 | > 200 nM | 0.987 | > 10 µM | 0.947 | > 2000 nM | 0.691 | 10.2 nM

Cell Line | AUC (Methotrexate) | IC50 (Methotrexate) | AUC (Dabrafenib) | IC50 (Dabrafenib) | AUC (Axitinib) | IC50 (Axitinib) | AUC (SN-38) | IC50 (SN-38)
GRANTA-519 (B-cell lymphoma, suspension) | 0.928 | > 200 nM | 0.99 | > 10 µM | 0.958 | > 2000 nM | 0.533 | 3.81 nM
NAMALWA (Burkitt lymphoma, suspension) | 0.705 | 42.2 nM | 0.977 | > 10 µM | 0.98 | > 2000 nM | 0.474 | 2.68 nM
SK-ES-1 (Ewing sarcoma, semi-adherent) | 0.509 | 13.3 nM | 0.948 | > 10 µM | 0.937 | > 2000 nM | 0.374 | 1.37 nM
NCI-SNU-5 (stomach, suspension) | 0.978 | > 200 nM | 0.97 | > 10 µM | 0.965 | > 2000 nM | 0.642 | 7.79 nM
VCaP (prostate, adherent) | 0.979 | > 200 nM | 0.92 | > 10 µM | 0.985 | > 2000 nM | 0.869 | 49.1 nM
NCI-H1963 (small cell lung carcinoma, suspension) | 0.847 | 120 nM | – | – | 0.925 | > 2000 nM | – | –
C-4-I (cervix, adherent) | 0.986 | > 200 nM | – | – | 0.857 | 1850 nM | 0.655 | 8.74 nM
RPMI-6666 (Hodgkin lymphoma, suspension) | 0.928 | > 200 nM | – | – | 0.981 | > 2000 nM | 0.569 | 5.03 nM
HCC1937 (breast, adherent) | – | – | 0.983 | > 10 µM | 0.906 | > 2000 nM | 0.851 | 47.8 nM
RKO (large intestine, adherent) | – | – | 0.667 | 1.75 µM | 0.988 | > 2000 nM | 0.526 | 3.65 nM
MDA-MB-436 (breast, adherent) | – | – | 0.965 | > 10 µM | 0.977 | > 2000 nM | 0.581 | 5.5 nM
PA-1 (ovary, adherent) | 0.991 | > 200 nM | – | – | 0.923 | 1970 nM | – | –
MM1S (myeloma, suspension) | 0.64 | 29.7 nM | – | – | 0.988 | > 2000 nM | – | –
ARH-77 (myeloma, suspension) | – | – | 0.968 | > 10 µM | 0.977 | > 2000 nM | 0.503 | 3.19 nM
SUP-B15 (lymphoblastic leukaemia, suspension) | 0.772 | 73.9 nM | – | – | 0.698 | 437 nM | – | –
SK-MEL-1 (melanoma, suspension) | 0.993 | > 200 nM | – | – | 0.993 | > 2000 nM | 0.984 | > 50 nM
NCI-H1876 (small cell lung carcinoma, adherent) | – | – | 0.983 | > 10 µM | 0.93 | > 2000 nM | 0.237 | 0.538 nM

IC50 is the fitted dose that halves viability relative to control wells, and lower means more sensitive; where the fit passes the top or lowest dose, that dose stands as a limit. For AUC the same curve is integrated over the 256-fold range of doses and scaled to a fraction; it is 1 without any effect and falls as sensitivity rises. For some assays here: The top dose, if marked as inferred, comes from the curve model; the source does not state it.
